# Results published in the supplement of paper PMC7826260.
# The list shows a part of the results. Cleavage of a single-stranded DNA pool by Rep nickase domains was read by sequencing at 3 µM enzyme and 37 °C for 1 h; the strands have 90 letters, of which the middle is given. A value is the log2 ratio of uncut reads to the pool without enzyme; the lower, the more was cut; hits are not called. Counts are relative to all reads; where an enzyme cuts many sequences, the uncut ones exceed 0.
# Key:
# Experiment in all cases: uncleaved DNA left, log2 of reads against the no-enzyme library (log2 ratio); higher = less cleavage (more negative = more Rep cleavage of the k-mer); sequences stand for … in CTCGTCCG…ACCGGAGA
# [1] = tested on: T1, Rep nickase domain of Muscovy duck circovirus
# T1 sequence (residues 1-111 of Rep, tag left off): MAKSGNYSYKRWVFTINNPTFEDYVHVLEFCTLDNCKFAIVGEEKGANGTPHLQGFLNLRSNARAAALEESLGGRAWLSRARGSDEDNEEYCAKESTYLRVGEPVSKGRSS
# Experimental: (§1)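 A pool of 90-nt single-stranded DNAs with seven random bases just before the constant AC of the nick site (name = the seven bases) was cut by 3 µM recombinant His6-SUMO-tagged Rep nickase domain (300 nM DNA, 50 mM HEPES pH 8.0, 50 mM NaCl, 1 mM MnCl2, 1 h, 37 °C, three replicates). Uncut DNA was amplified and sequenced.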
# [2] = tested on: T2, Rep nickase domain of banana bunchy top virus
# T2 sequence (residues 1-94 of Rep, tag left off): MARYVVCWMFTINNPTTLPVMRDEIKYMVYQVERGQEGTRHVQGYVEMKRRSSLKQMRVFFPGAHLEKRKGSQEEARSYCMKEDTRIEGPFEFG
# Experimental: as §1
# [3] = tested on: T3, Rep nickase domain of cabbage leaf curl virus
# T3 sequence (residues 1-116 of Rep, tag left off): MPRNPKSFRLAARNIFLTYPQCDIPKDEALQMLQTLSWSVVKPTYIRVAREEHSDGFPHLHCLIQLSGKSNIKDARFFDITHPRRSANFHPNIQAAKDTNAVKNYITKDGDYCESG
# Experimental: as §1
# [4] = tested on: T4, Rep nickase domain of chickpea chlorotic dwarf virus
# T4 sequence (residues 1-124 of Rep, tag left off): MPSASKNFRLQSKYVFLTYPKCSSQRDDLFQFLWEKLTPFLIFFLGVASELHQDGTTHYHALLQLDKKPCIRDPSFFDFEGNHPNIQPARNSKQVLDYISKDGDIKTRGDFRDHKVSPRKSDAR
# Experimental: as §1
# [5] = tested on: T5, Rep nickase domain of faba bean necrotic yellows virus
# T5 sequence (residues 1-98 of Rep, tag left off): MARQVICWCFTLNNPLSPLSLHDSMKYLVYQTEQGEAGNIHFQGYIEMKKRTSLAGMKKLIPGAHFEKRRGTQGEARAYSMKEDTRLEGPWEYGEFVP
# Experimental: as §1
# [6] = tested on: T6, Rep nickase domain of maize striate mosaic virus
# T6 sequence (residues 1-117 of Rep, tag left off): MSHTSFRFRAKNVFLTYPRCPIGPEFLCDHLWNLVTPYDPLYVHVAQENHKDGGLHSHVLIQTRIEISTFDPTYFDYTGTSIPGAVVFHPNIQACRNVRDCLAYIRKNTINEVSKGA
# Experimental: as §1
# [7] = tested on: T7, Rep nickase domain of porcine circovirus 2
# T7 sequence (residues 2-116 of Rep, tag left off): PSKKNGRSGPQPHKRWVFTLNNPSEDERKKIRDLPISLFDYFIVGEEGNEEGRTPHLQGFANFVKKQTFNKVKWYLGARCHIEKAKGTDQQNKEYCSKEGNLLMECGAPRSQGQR
# Experimental: as §1
# [8] = tested on: T8, Rep nickase domain of tomato golden mosaic virus
# T8 sequence (residues 1-124 of Rep, tag left off): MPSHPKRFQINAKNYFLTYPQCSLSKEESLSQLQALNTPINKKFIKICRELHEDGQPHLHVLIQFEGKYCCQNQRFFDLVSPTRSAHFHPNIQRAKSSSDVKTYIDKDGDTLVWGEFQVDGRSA
# Experimental: as §1
# [9] = tested on: T9, Rep nickase domain of tomato yellow leaf curl virus
# T9 sequence (residues 1-136 of Rep, tag left off): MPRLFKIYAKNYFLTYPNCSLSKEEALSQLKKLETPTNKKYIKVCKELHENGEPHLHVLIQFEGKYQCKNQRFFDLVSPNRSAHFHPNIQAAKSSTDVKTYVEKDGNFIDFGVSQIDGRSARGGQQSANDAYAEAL
# Experimental: as §1
# [10] = tested on: T10, Rep nickase domain of wheat dwarf virus
# T10 sequence (residues 1-137 of Rep, tag left off): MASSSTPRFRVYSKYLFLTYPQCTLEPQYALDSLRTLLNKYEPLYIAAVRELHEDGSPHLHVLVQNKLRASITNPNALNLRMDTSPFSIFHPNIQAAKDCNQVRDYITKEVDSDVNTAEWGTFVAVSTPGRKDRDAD
# Experimental: as §1
Sequence,uncleaved DNA left (log2) [1],uncleaved DNA left (log2) [2],uncleaved DNA left (log2) [3],uncleaved DNA left (log2) [4],uncleaved DNA left (log2) [5],uncleaved DNA left (log2) [6],uncleaved DNA left (log2) [7],uncleaved DNA left (log2) [8],uncleaved DNA left (log2) [9],uncleaved DNA left (log2) [10]
CAGCAGG,0.00399,0.0356,-0.0746,0.187,0.132,-0.56,0.0801,0.174,0.0324,-0.0231
ACAACAT,0.0555,0.0427,0.394,0.522,0.0688,0.405,0.2,0.0599,-0.0382,0.214
TTGTCCA,0.0685,0.0714,0.243,-0.356,0.0247,0.0752,-0.205,0.0223,0.117,0.0581
GACTCTC,-0.0739,-0.117,0.177,0.259,-0.088,0.585,-2.64,-0.074,0.0286,-0.0609
TTTGACG,0.0173,-0.0203,-0.788,-0.477,0.164,-1.14,0.118,-0.00345,0.124,-0.0955
TCACATA,-0.022,-0.0261,-0.0233,-1,-0.0999,-0.53,-0.0555,-0.0689,-0.0443,-0.0131
GGCAAGG,0.181,0.134,0.466,1.02,0.0286,1.56,0.184,0.184,0.0862,0.184
CATTGAT,-2.68,-3.47,-0.615,-0.81,-0.0627,-1.02,-3.49,-0.0567,-0.0417,0.00636
TGATATG,0.11,-0.0436,-0.341,-0.236,0.0818,-0.796,0.05,0.0247,-0.0886,-0.104
CGGGTCT,0.039,0.134,0.782,1.14,-0.0248,1.89,0.131,0.0509,0.0934,0.144
AAGAAAT,-0.0884,-0.119,0.191,1.12,-0.103,1.45,-3.17,-0.0458,-0.126,0.127
ATAACTT,-0.0596,-0.055,-0.221,-2.79,0.0358,-0.518,-0.442,-0.0411,-0.125,-0.047
GTGGAAA,-0.0448,0.0658,0.413,1.29,0.048,2.02,0.0959,-0.0384,0.103,0.242
GCCAAAT,0.0397,0.102,0.164,0.398,0.0129,0.332,0.0133,0.106,0.0683,0.14
TAGTTAT,-1.83,-2.57,-1.09,-2.25,-1.31,0.43,-3.97,-0.0688,0.0348,-0.129
CTGTGTC,-0.00346,-0.0627,-0.0608,-0.382,-0.256,-0.952,-0.0799,-0.182,0.00176,-0.0412
GCCATTT,-0.108,0.112,-0.0711,-0.885,0.0471,-0.473,-0.0682,-0.0248,0.0894,-0.0873
TGTGAGC,0.0597,-0.00291,0.0388,0.0293,-0.0558,-0.426,-0.0189,-0.0488,-0.205,-0.102
TTTCTTT,-0.136,-0.0513,0.0703,-1.72,0.0498,-0.39,-0.686,-0.0851,0.0905,-0.0354
ATCTTCT,-1.05,-0.321,-0.378,-2.39,-0.0235,-0.926,-3.41,-0.0238,-0.0515,-0.0893
GATAGCC,-0.0428,0.013,0.0893,0.405,0.00794,-0.211,0.162,-0.0508,0.0831,0.094
TGTGTTT,0.0133,-0.0973,0.197,-1.03,-0.022,0.485,-0.421,-0.0743,-0.0971,-0.106
CAATACA,-0.173,0.177,-0.935,-0.745,0.0201,-0.503,-1,-0.00167,0.0344,-0.294
ATTCCGT,0.0441,-0.011,-0.236,-0.731,0.0216,-0.969,-0.176,-0.0449,0.0265,-0.0912
GACTGAT,-0.306,-0.194,-0.0459,0.463,-0.1,1.11,-3.02,-0.079,-0.194,-0.0975
CAATTAA,-0.144,-0.0518,-0.36,-1.06,0.034,-0.991,-0.303,-0.0856,-0.115,-0.0632
CTAATTG,0.141,0.0507,-0.551,-0.577,0.0551,-1.19,0.234,0.0957,0.0957,-0.117
ACGATAA,0.05,-0.0145,-0.212,-0.138,0.114,-0.238,0.131,-0.00704,-0.0589,-0.0805
TAATTTT,-4.18,-3.57,-5.64,-3.38,-1.06,-4.46,-5.1,-4.29,-3.82,-5.44
